Results on 101 compounds are retold here after publication PMC6919601, “Identification of Plasmodium dipeptidyl aminopeptidase allosteric inhibitors by high throughput screening” (PLoS ONE, 2019).

Out of some 110,000 compounds screened, about 230 (0.21%) showed an effect of 50% or more. This is one part of the list.
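Also: 30 min substrate incubation versus DMSO and 10 µM JCP410 controls.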

Sequence of DPAP1 (Q8IIJ9 whole entry, looked up): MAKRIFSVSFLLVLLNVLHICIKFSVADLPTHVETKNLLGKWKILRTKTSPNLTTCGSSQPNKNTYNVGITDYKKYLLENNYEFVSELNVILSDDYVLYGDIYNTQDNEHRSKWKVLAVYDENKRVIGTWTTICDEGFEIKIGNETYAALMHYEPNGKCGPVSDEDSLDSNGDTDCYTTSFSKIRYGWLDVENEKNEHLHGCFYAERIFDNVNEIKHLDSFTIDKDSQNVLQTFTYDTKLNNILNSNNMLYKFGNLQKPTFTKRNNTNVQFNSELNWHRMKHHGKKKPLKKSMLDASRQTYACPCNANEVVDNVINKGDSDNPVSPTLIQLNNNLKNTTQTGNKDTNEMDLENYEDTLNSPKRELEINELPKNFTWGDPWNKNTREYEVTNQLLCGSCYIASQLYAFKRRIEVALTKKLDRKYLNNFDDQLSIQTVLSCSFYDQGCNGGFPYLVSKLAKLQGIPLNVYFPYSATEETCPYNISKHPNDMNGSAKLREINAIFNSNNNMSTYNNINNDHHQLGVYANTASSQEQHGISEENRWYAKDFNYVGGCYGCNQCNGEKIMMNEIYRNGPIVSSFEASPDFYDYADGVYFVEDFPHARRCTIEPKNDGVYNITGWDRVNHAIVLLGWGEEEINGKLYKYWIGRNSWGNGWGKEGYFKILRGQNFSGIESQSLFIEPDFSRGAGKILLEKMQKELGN

The assay addresses DPAP1 (Plasmodium falciparum, UniProt Q8IIJ9). Kind of assay: primary screen, percent inhibition; read by cleavage of a fluorogenic dipeptide substrate; higher = more effect of the substance. More on the design: species or system P. falciparum D10 trophozoite lysates; single well.
As to `CCc1ccc(C2C3=C(CCCC3=O)OC3=C2C(=O)CCC3)cc1`, the “% Inhibition @ 10 uM” value was 2.3%.
The result for `CCCCOc1ccc(CSc2nnc(C)n2N)cc1` reads 0.484%.
For the compound `COc1ccc(S(=O)(=O)NCc2csc(-c3ccccc3)n2)cc1`, the “% Inhibition @ 10 uM” value is recorded as 2.57%.
For the compound `O=C1S/C(=C\c2ccccc2)C(=O)N1CNc1cccc(F)c1`, the “% Inhibition @ 10 uM” value is -3.43%.
Take `CS(=O)(=O)/C=C/C(Cc1ccccc1)NC(=O)c1cnccn1` (centres unmarked): the “% Inhibition @ 10 uM” value is -4.82%.
Turning to `O=C(NCc1ccccc1Cl)C1CCN(C(=O)c2cnn(-c3ccccc3)c2-n2cccc2)CC1`, the “% Inhibition @ 10 uM” value is -1.6%.
To `CNC(=O)C(C)n1c2ccccc2c2cnnc(O)c21` (centres unmarked) belongs 4.55%; to `CCCn1c(=O)c(C(=O)Nc2ccc(Br)cc2)c(O)c2ccccc21`, 0.177%.
For `COCCNC(=O)/C(C#N)=C/c1c(Oc2ccc(C)cc2)nc2c(C)cccn2c1=O`, the “% Inhibition @ 10 uM” value turned out to be 0.315%.
Turning to `COc1ccc(CN2CCN(c3ncnc4onc(-c5ccc(F)cc5)c34)CC2)c(OC)c1OC`, the “% Inhibition @ 10 uM” value is -4.02%.
Regarding `CCOc1ccc(NC(=O)c2cccc(OC)c2)cc1`, the “% Inhibition @ 10 uM” value worked out at 7.27%.
For `CCCNC(=O)CSC1=N/C(=C/c2ccc(F)cc2)C(=O)N1CC`, the “% Inhibition @ 10 uM” value amounted to 2.68%.
To `Fc1cccc(Cl)c1-c1nnc2ccc3ccccc3n12` belongs 2.24%; to `CCO/C(O)=C(\C(=N)NCCCO)C(=O)c1ccccc1`, -4.19%; to `O=C(NCCCN1CCCC1=O)C1CCN(c2ncnc3c2sc2cccc(F)c23)CC1`, -0.85%.
The result for `COc1ccccc1OCCn1c(=O)oc2ccc(C)cc21` reads -2.16%; that for `Cc1nc2c(cc1C(=O)/C=C/c1cccs1)CCCC2`, 2.47%.
For the compound `COc1ccc(-c2nnc3n(Cc4ccccc4Cl)c(=O)c4ccccc4n23)cc1OC`, the “% Inhibition @ 10 uM” value was -7.29%.
As to `Cc1ccc(OCC(=O)NCc2nc(-c3ccccc3)no2)c(Br)c1`, the “% Inhibition @ 10 uM” value turned out to be 2.14%.
`COCCNC(=O)CSc1nc2nc(C)cc(C)n2n1`: the “% Inhibition @ 10 uM” value was determined as 4.36%.
As to `CCc1ccc(CNC(=O)c2nn(C)c3c2CS(=O)(=O)c2ccccc2-3)cc1`, the “% Inhibition @ 10 uM” value was -2.58%.
The result for `Cc1cc(C)c2c(N)c(S(=O)Cc3ccc(Cl)cc3)sc2n1` (centres unmarked) reads 6.27%; that for `CC1(C)OC(=O)N(CCOC23CC4CC(CC(C4)C2)C3)C1(C)O` (centres unmarked), 4.09%.
As for `CC(=O)N1CCC(NCC(C)(C)CN(C)C)CC1`, the “% Inhibition @ 10 uM” value is reported as 1.57%.
For `Cc1nc(-c2ccccc2)c2c(O)ccnc2n1`, the “% Inhibition @ 10 uM” value is -4.76%.
With `Cc1ccc(NC(=O)c2ccc3c(c2)OCO3)c(Br)c1`, the “% Inhibition @ 10 uM” value worked out at 1.57%.
Take `COc1ccc(N(CC(=O)Nc2ccc(C)cc2)S(=O)(=O)c2ccccc2)cc1Cl`: the “% Inhibition @ 10 uM” value was -3.28%.
As to `O=S1(=O)N=C(c2ccccc2)c2ccccc2N1`, the “% Inhibition @ 10 uM” value stood at 2.95%.
For the compound `C#CCn1c(-c2ccc(OC)cc2)nc2ccccc21`, the “% Inhibition @ 10 uM” value was -0.551%.
For `CCN(CC)CCN(C)C1CCN(C)CC1`, the “% Inhibition @ 10 uM” value came out at 1.38%.
Take `CC(C)Oc1ccc(-c2nc3s/c(=C\c4ccc(F)cc4)c(=O)n3n2)cc1`: the “% Inhibition @ 10 uM” value was determined as 0.487%.
`CCCCCC1NC(=O)NC1CCCCCC(=O)O` (centres unmarked): the “% Inhibition @ 10 uM” value was 7.05%.
With `Cc1ccc(NC(=O)c2cc3nc(C(F)F)cc(C(F)F)n3n2)cc1C`, the “% Inhibition @ 10 uM” value was 3.24%.
Take `Cc1csc2nc(CSc3nnc(N)s3)cc(=O)n12`: the “% Inhibition @ 10 uM” value is -7.65%.
To `N#Cc1c(NC(=O)c2cc(=O)c3cc(Cl)ccc3o2)sc2c1CCCC2` belongs -1.47%; to `CC(C)(C)c1ccc(Oc2nc3ccccn3c(=O)c2/C=C(\C#N)C(=O)NCc2ccco2)cc1`, 5.89%.
Turning to `CS(=O)(=O)N1CCN(c2ccc(NC(=O)c3ccco3)cc2)CC1`, the “% Inhibition @ 10 uM” value was -6.02%.
For the compound `CCOC(=O)c1c(C)n(-c2cccc(Cl)c2)c2ccc(O)cc12`, the “% Inhibition @ 10 uM” value is -1.69%.
To `COC(=O)C1=C(C)N2C(=O)CSC2=NC1c1ccc2c(c1)OCO2` (centres unmarked) belongs 3.87%.
On to `CCOc1ccc2c(=O)c(Oc3cc(C)cc(C)c3)coc2c1`, for which the “% Inhibition @ 10 uM” value is 9.77%.
Consider `CCSc1cc(N2CCN(C)CC2)nc(-c2ccc(OC)cc2)n1`, for which the “% Inhibition @ 10 uM” value is 0.161%.
Turning to `CCOC(=O)c1cnc(SC)nc1NC(=O)CSCc1csc2c1CCCC2`, the “% Inhibition @ 10 uM” value is 9.97%.
As to `COc1cccc(OC)c1C(=O)Nc1cccnc1`, the “% Inhibition @ 10 uM” value is recorded as 5.66%.
Regarding `O=C(CC(c1ccc(F)cc1)N1Cc2ccccc2C1=O)N1CCc2ccccc2C1` (centres unmarked), the “% Inhibition @ 10 uM” value is reported as -9.28%.
As for `O=C(O)C1C2CC3CC(C2)CC1(n1ncc(N2CCC4(CC2)OCCO4)c(Cl)c1=O)C3` (centres unmarked), the “% Inhibition @ 10 uM” value is reported as -0.522%.
As for `CCOC(=O)c1cnc(Nc2nc(C)c3ccc(C)cc3n2)nc1C`, the “% Inhibition @ 10 uM” value turned out to be 25.6%.
As for `COc1ccccc1/C=C(\C#N)c1nc(-c2ccccc2)cs1`, the “% Inhibition @ 10 uM” value is on record as 4.26%.
For the compound `Cc1cccc(N2C(=O)C(Cl)=C(N(C)c3ccccc3)C2=O)c1`, the “% Inhibition @ 10 uM” value is -3.46%.
On to `CNC(=O)c1cc2c(=O)n3ccccc3nc2n(CC2CCCO2)c1=N` (centres unmarked), for which the “% Inhibition @ 10 uM” value is -1.47%.
On to `CCN1CCN(CCCNC(=O)c2[nH]c3ccccc3c2Sc2ccc(Cl)cc2)CC1`, for which the “% Inhibition @ 10 uM” value is -4.26%.
Regarding `CN(CC(=O)Nc1c(F)cccc1F)S(=O)(=O)c1ccc(Br)cc1`, the “% Inhibition @ 10 uM” value was 2.79%.
In the case of `COc1ccccc1OCC(=O)N(Cc1ccc(N(C)C)cc1)C1CCS(=O)(=O)C1` (centres unmarked), the “% Inhibition @ 10 uM” value came to 4%.
Regarding `Cn1cnc(S(=O)(=O)Nc2nnc(S)s2)c1`, the “% Inhibition @ 10 uM” value was determined as 95.5%.
`O=C(O)c1cccn1Cc1ccccc1Cl`: the “% Inhibition @ 10 uM” value is on record as 4.61%.
`O=C(Cn1ncn2cccc2c1=O)NCc1cccnc1`: the “% Inhibition @ 10 uM” value came to 1.91%.
With `C#CCOC(=O)c1ccccc1C(=O)N(c1ccccc1)c1ccccc1`, the “% Inhibition @ 10 uM” value is listed as -2.62%.
For `O=C(CSCc1ccccc1Cl)N1CCN(c2ccccn2)CC1`, the “% Inhibition @ 10 uM” value is recorded as 0.514%.
Take `c1ccc(CC23CC4CN(CCN(C4)C2)C3)cc1`: the “% Inhibition @ 10 uM” value stood at 1.57%.
Regarding `Cc1ccc(-c2cc(C(=O)Nc3ccc(S(N)(=O)=O)cc3)c3ccccc3n2)o1`, the “% Inhibition @ 10 uM” value came to 5.48%.
Regarding `CC1(C)Cc2ccccc2-c2nnc(-c3cccs3)n21`, the “% Inhibition @ 10 uM” value was -4.5%.
For the compound `CCOc1ccc(NC(=O)c2ccc([N+](=O)[O-])o2)cc1`, the “% Inhibition @ 10 uM” value worked out at 4.16%.
As to `Cc1cc(C(=O)NCCCN2CCCC2=O)c2c(C)nn(-c3cccc(Cl)c3C)c2n1`, the “% Inhibition @ 10 uM” value is recorded as -2.07%.
For `CCC[C@H](NC(=O)C1(NC(=O)c2ccc(OC(F)(F)F)cc2)CCCCC1)C(=O)c1nc2ccccc2o1`, the “% Inhibition @ 10 uM” value was 1.7%.
With `CC(C)(C)C1CCC(N2CCOCC2)CC1` (centres unmarked), the “% Inhibition @ 10 uM” value is given as 1.29%.
For `COc1cccc(N2C(=O)CC(N3CCN(C4CC(=O)N(c5cccc(OC)c5)C4=O)CC3)C2=O)c1` (centres unmarked), the “% Inhibition @ 10 uM” value turned out to be 3.8%.
As for `Cn1ccnc1Sc1cccc2c1C(=O)c1ccccc1C2=O`, the “% Inhibition @ 10 uM” value is on record as -0.289%.
With `CS(=O)(=O)N(CC(=O)Nc1ccccc1F)c1cccc(F)c1`, the “% Inhibition @ 10 uM” value is -0.622%.
As for `CCCS(=O)(=O)c1nc(S(=O)(=O)c2ccc(C)cc2)c(NCCN(C)C)s1`, the “% Inhibition @ 10 uM” value is -2.25%.
The result for `CCCN1C(=O)c2[nH]nc(-c3c(C)cc(C)cc3O)c2C1c1cc(OC)c(OC)c(OC)c1` (centres unmarked) reads 4.83%; that for `Cc1cc(C(=O)N2CCc3ccccc3C2)[nH]n1`, 0.359%.
The result for `CCOc1ccc(/C=C/C(=O)Nc2nc(-c3ccccc3)cs2)cc1` reads 3.54%; that for `CC(C)(C)NS(=O)(=O)Nc1ncccn1`, 1.42%; that for `COc1cccc2c3c(c(C)nc12)CC(C)O3` (centres unmarked), -0.711%.
As for `N#Cc1ccc(N2C(=O)C3ON(c4ccccc4)C(c4ccccc4)C3C2=O)cc1` (centres unmarked), the “% Inhibition @ 10 uM” value was -0.68%.
For the compound `COc1ccc(CC(C)NCCC2=CCCCC2)cc1` (centres unmarked), the “% Inhibition @ 10 uM” value is listed as -8.55%.
As to `CCN1CCN(S(=O)(=O)c2ccc(OCCC(C)C)c(C(N)=O)c2)CC1`, the “% Inhibition @ 10 uM” value is 0.776%.
On to `CCOc1ccc2nc(NC(=O)CC(C)C)sc2c1`, for which the “% Inhibition @ 10 uM” value turned out to be 4.44%.
Regarding `CCCN1CCC(NCCc2ccc(F)cc2)CC1`, the “% Inhibition @ 10 uM” value is -4.37%.
For `COc1cccc(NC(=O)c2ccc(N(Cc3ccc(Cl)cc3)S(C)(=O)=O)cc2)c1`, the “% Inhibition @ 10 uM” value is recorded as -0.088%.
For `Cc1ccc(C(=O)C2=C(O)C(=O)N(CC3CCCO3)C2c2ccc(Br)cc2)cc1` (centres unmarked), the “% Inhibition @ 10 uM” value is recorded as 0.161%.
Consider `CCN(CC)CCCN(C)C(=O)Cn1nc(Cc2ccncc2)c2ccccc2c1=O`, for which the “% Inhibition @ 10 uM” value is recorded as 9.33%.
For `CC(C)NC(=O)Cn1cnc2onc(-c3ccc(F)cc3)c2c1=O`, the “% Inhibition @ 10 uM” value was -6.88%.
Turning to `CCOC(=O)c1cc(-c2cccs2)no1`, the “% Inhibition @ 10 uM” value is 21.9%.
Turning to `COCCNC(=O)C1CCCN(S(C)(=O)=O)C1` (centres unmarked), the “% Inhibition @ 10 uM” value is -4.83%.
To `COc1ccc(CCNC(=O)CSc2nnc3c4ccccc4n(C(C)C)c3n2)cc1OC` belongs -0.834%.
The result for `CCN(CC)S(=O)(=O)c1ccc(NC(=O)c2cccc(C)c2)cc1` reads 3.13%.
For `O=C(Nc1ccc(F)c(Cl)c1)c1cc2nc(C(F)F)cc(C(F)F)n2n1`, the “% Inhibition @ 10 uM” value is -8.02%.
Consider `CCCCN(C(=O)c1ccc(Cl)cc1)C1CC2CCC(C1)N2C` (centres unmarked), for which the “% Inhibition @ 10 uM” value came to 4.37%.
In the case of `CCCc1cc(O)n2nc(NC(=O)c3ccc(F)cc3)nc2n1`, the “% Inhibition @ 10 uM” value is 0.401%.
For the compound `O=C(c1ccco1)N1CCN(Cc2ccccc2F)CC1`, the “% Inhibition @ 10 uM” value is -0.641%.
Turning to `COc1cccc(NC(=O)c2cc(-c3cccs3)nc3ccccc23)c1`, the “% Inhibition @ 10 uM” value is recorded as 1.72%.
Regarding `CC[C@@H](C)[C@H](NC(=O)CCC(=O)OC)C(=O)N[C@@H](CCc1ccccc1)C(=O)CO`, the “% Inhibition @ 10 uM” value is -6.56%.
The result for `Fc1ccc(CNC23CN4CN(CN(C4)C2)C3)cc1` reads 8.38%; that for `C=Cc1ccc(Cn2c(C(=O)O)c(CNCCc3ccccc3OC)c3ccc(C)cc32)cc1`, 3.13%; that for `Cc1cc(/N=C/N(C)C)c2ccccc2n1`, 0.266%.
In the case of `CC1CCN(C(=O)Nc2cccc(NC(=O)N3CCC(C)CC3)c2)CC1`, the “% Inhibition @ 10 uM” value is -0.67%.
On to `Cc1ccc(C(=O)N/C(=C\c2ccco2)C(=O)N2CCc3ccccc3C2)cc1C`, for which the “% Inhibition @ 10 uM” value is recorded as -2.24%.
As for `CC(C(=O)O)n1nc(-c2ccccc2)c2ccccc21` (centres unmarked), the “% Inhibition @ 10 uM” value is on record as 3.24%.
As for `CC(C)c1ccc(NC(=O)c2ccc3c(c2)C(=O)N(Cc2cccnc2)C3=O)cc1`, the “% Inhibition @ 10 uM” value is 6.26%.
With `Cc1cc(C)n2nc(NCc3c(F)cccc3Cl)nc2n1`, the “% Inhibition @ 10 uM” value is given as -0.671%.
In the case of `CN(C)CCN(C)Cc1cccc(Cl)c1Cl`, the “% Inhibition @ 10 uM” value is recorded as -0.351%.
